The assay has as its target T1, His-tagged minimal-binding region of Dmp1 for p53 (M14: amino acids 87–224) (UniProt Q8CE22 87-224).
T1 sequence (looked up): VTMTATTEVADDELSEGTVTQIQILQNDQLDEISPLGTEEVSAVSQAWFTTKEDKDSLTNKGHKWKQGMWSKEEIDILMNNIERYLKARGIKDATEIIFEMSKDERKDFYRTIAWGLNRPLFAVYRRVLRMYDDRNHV
The assay can be described thus: co-IP.

B1: His-tagged carboxyl-terminal p53 ([…]: Δ1–289) (domain or fragment)
chain: not shown
On to B1, for which the binding result is given as “binds”.

The values are drawn from article PMC3319807 (Cancer Research, 2012).
